# The full ranking holds about 33,000 sequences; the median of “E-score (-0.5 to 0.5)” is about -0.016, and the highest 2% start at about 0.32. The list shows a part of the results.
# Molecular target: T1, Stp1 (UniProt B3LFK1)
# T1 sequence: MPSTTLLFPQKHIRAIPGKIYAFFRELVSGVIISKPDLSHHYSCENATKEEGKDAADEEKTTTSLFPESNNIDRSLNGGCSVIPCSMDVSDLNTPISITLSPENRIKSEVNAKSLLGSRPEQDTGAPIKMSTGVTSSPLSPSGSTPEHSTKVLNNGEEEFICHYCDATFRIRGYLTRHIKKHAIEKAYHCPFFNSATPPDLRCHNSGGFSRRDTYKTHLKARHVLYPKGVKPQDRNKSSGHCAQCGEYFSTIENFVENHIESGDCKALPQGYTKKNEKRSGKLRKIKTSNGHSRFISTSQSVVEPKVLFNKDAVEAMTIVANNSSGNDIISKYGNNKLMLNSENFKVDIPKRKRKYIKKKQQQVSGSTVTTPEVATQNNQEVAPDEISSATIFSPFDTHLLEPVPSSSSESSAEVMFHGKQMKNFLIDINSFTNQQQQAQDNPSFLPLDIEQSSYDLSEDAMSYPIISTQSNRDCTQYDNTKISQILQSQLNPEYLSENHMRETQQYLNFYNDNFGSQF
# Experiment: PBM E-score (8-mer binding enrichment) (E-score (-0.5 to 0.5)); higher = stronger / more preferred TF binding; most listed sequences are background and not binding sites
# Details: protein concentration: 200 nM; construct: GST-full length
# Experimental: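 Universal 'all 10-mer' protein binding microarrays (Agilent AMADID 015681) probed with GST-tagged S. cerevisiae TFs (full-length or DBD) made by in vitro transcription/translation (PURExpress), about 100-200 nM. Bound TF was detected with fluorescent anti-GST. Each ungapped 8-mer (which stands for itself and its reverse complement) is scored by the PBM enrichment score (E-score), a modified Wilcoxon-Mann-Whitney statistic from -0.5 to +0.5, computed with the Universal PBM Analysis Suite. Scale: above 0.35 generally sequence-specific binding.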
row,Sequence,PBM E-score
1,CCACGCGG,0.18
2,CCCATTAA,-0.0754
3,AATCATCA,0.0432
4,CATGGAAA,0.0744
5,ACAGCAGG,-0.136
6,CTCCTAAC,-0.289
7,ACCGAGAA,-0.0545
8,ACTCTGCC,-0.107
9,CTGTTTAC,0.0717
10,GTTATCCA,-0.0565
11,CCATAGAC,-0.075
12,CCAGTTAA,0.0601
13,AATTCATA,0.108
14,GCCAGGAA,-0.0276
15,AGTGACAT,-0.0142
16,GAGCGCTA,-0.0884
17,GAGTAGAC,0.0184
18,CCAAACAG,0.0273
19,CAAAGCTC,-0.276
20,GACCGTCC,-0.287
21,AACACGTA,0.0517
22,AACGTAGG,-0.217
23,CCATTTGC,0.116
24,ACGAACCA,0.152
25,CAAGTAAG,0.0789

row,Sequence,PBM E-score
1,AAACGATT,0.0574
2,CAGCGAGG,-0.144
3,GCATCTGA,-0.142
4,GCCTATAC,-0.164
5,AGATTCCT,-0.137
6,ATATGTCA,0.0964
7,GCAGTGCC,0.253
8,ATAACCGA,-0.063
9,CAAGGTGA,-0.129
10,TGGAACCA,0.0229
11,GGTCACGA,-0.0819
12,CGGCAGAA,0.328
13,CGCAGCCA,0.0536
14,GTTTGCGA,0.0649
15,CGCCGAAC,0.347
16,TCACAAGA,0.0558
17,ATGCGTAC,0.163
18,AACCTGTC,-0.17
19,CTGATGAA,-0.0479
20,TGTAATAA,0.189
21,ATTCGACC,-0.208
22,CGCGTTCC,-0.135
23,ACGACACA,0.163
24,CTACCAGA,-0.0299
25,ATAGCTCG,-0.0254

row,Sequence,PBM E-score
1,GAGTGAGA,-0.00238
2,AGTTGGGA,-0.114
3,ATAGCCAT,-0.0256
4,GCGGCCTA,0.00545
5,CTTTCACA,0.176
6,AAAATTAA,0.0635
7,CATGCCAC,0.0306
8,AACAAGAG,-0.104
9,AGCGGTCC,-0.159
10,AATGCCTG,0.0179
11,CTAAGGGA,-0.185
12,TACGTGAA,0.0531
13,CTACTCAG,-0.145
14,AAAGCCGG,0.135
15,GAACTACA,-0.0336
16,GTGATCCA,-0.179
17,AGACATAT,-0.00989
18,CACTCGTC,-0.0386
19,TATCGACA,0.134
20,ACAAGTCT,-0.16
21,TATCGCCA,0.23
22,CATCACAA,0.123
23,CCCGACGG,-0.00055
24,ATAAGTTC,-0.0171
25,GCCCTTAA,-0.0909

row,Sequence,PBM E-score
1,GAAGGGTC,-0.175
2,GGGAGCCA,-0.214
3,AGATAGTA,0.0718
4,AGCGGCGC,0.452
5,CGACATCA,0.0508
6,GAATAACA,0.166
7,ATCAGTCA,-0.0158
8,ATGAACTC,-0.186
9,CTCTTAGC,0.0466
10,CAGTGCCA,-0.0624
11,AGGTTTGG,-0.105
12,ACAAGTCC,-0.178
13,ATCTAGAT,-0.0643
14,ACCGGAGT,-0.00772
15,GGCTTTAC,0.212
16,GTGTACAA,0.17
17,AAATTGCG,0.0941
18,AATAGACA,-0.11
19,AGGAGAAA,-0.21
20,CTCTATGA,-0.0121
21,GACCACTA,-0.158
22,GAACGGTC,-0.0534
23,TCTTTTCA,0.0882
24,AAGCCATA,-0.072
25,ACGCTCCC,-0.239

row,Sequence,PBM E-score
1,AACTAATC,0.0053
2,GATTAAGA,0.102
3,GGATCAGA,-0.138
4,AATACCAA,0.0583
5,CTATGTAC,-0.182
6,GAGACGGC,0.411
7,CGGCACCA,0.462
8,GAAGCTTA,-0.00959
9,AACTGACA,0.043
10,AGGAAAAT,-0.119
11,ATTACCAC,0.0153
12,AATATATC,0.27
13,CACCGTCA,0.0243
14,AGATTGCG,0.0474
15,GCGCGCTA,0.113
16,GTATCTCA,0.14
17,GGTCGAAC,-0.0638
18,GGTAGTAA,-0.236
19,AAGGTCGA,-0.106
20,GCCGTAAA,0.369
21,GCCATGCA,0.194
22,ATTCTTTA,0.0763
23,CCGGGGCG,-0.0988
24,CAATCGTG,-0.0536
25,CATCCACG,0.0537

row,Sequence,PBM E-score
1,TATCCGGA,0.0774
2,CCACAACG,-0.0392
3,GGAGAAAA,0.00747
4,TCATCTAA,0.0913
5,AGATGACA,-0.0294
6,AATCAGAC,0.0846
7,CAGAGCTG,-0.147
8,CTGGGAAA,0.0002
9,AGTCATAA,-0.0349
10,TCAGAAGA,-0.204
11,ACTAGTTA,0.0825
12,ACGGAACG,0.142
13,CCTAATAC,0.0462
14,GTCTAGTA,-0.0452
15,ATGGCTGC,0.0206
16,ACGACCGC,-0.158
17,CAAATAGC,0.0889
18,CTCCTGTA,0.0369
19,CAGTGGCC,-0.167
20,CCCCTTGC,-0.213
21,CGCAAACA,0.109
22,CTTATAAA,0.115
23,GTTTTTTA,0.0825
24,ACGCCTGG,-0.0577
25,AGCTTCAT,-0.0411

row,Sequence,PBM E-score
1,CCATATCA,0.0495
2,CGACCCGC,0.0115
3,CATAATAG,0.221
4,CGGGCAAC,-0.143
5,GTACCACA,0.121
6,AAGCGAAT,0.0604
7,ATGCACCA,-0.0872
8,AACTTTAC,-0.019
9,CACTCGGC,0.28
10,AACTACTC,0.107
11,CCTCGGGA,-0.121
12,AGTCTTTC,-0.208
13,CCGGTAGG,0.0318
14,GCTTCTCA,-0.206
15,ATAAATGA,0.0145
16,CGCCTTTC,0.354
17,CGCGTCCA,0.132
18,GGATACCC,-0.163
19,CCGAGTCC,-0.0324
20,AAGATGCA,-0.0477
21,AGACGAAA,0.189
22,CCAGCGCC,0.235

# From the supplement of paper PMC3334620
